# The campaign covered roughly 310,000 compounds. About 14,000 (4.5%) showed an effect of 50% or more. The effect is printed as a negative number. The list shows a part of the results.
# Target: human ether-à-go-go-related gene (hERG) potassium channel (human, UniProt Q12809)
# Experiment: primary screen, population patch clamp on CHO cells stably expressing hERG
# 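Also: peak tail current of the secondary pulse compared with the same well before compound.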
# Chain of human ether-à-go-go-related gene (hERG) potassium channel (Q12809 whole entry, looked up): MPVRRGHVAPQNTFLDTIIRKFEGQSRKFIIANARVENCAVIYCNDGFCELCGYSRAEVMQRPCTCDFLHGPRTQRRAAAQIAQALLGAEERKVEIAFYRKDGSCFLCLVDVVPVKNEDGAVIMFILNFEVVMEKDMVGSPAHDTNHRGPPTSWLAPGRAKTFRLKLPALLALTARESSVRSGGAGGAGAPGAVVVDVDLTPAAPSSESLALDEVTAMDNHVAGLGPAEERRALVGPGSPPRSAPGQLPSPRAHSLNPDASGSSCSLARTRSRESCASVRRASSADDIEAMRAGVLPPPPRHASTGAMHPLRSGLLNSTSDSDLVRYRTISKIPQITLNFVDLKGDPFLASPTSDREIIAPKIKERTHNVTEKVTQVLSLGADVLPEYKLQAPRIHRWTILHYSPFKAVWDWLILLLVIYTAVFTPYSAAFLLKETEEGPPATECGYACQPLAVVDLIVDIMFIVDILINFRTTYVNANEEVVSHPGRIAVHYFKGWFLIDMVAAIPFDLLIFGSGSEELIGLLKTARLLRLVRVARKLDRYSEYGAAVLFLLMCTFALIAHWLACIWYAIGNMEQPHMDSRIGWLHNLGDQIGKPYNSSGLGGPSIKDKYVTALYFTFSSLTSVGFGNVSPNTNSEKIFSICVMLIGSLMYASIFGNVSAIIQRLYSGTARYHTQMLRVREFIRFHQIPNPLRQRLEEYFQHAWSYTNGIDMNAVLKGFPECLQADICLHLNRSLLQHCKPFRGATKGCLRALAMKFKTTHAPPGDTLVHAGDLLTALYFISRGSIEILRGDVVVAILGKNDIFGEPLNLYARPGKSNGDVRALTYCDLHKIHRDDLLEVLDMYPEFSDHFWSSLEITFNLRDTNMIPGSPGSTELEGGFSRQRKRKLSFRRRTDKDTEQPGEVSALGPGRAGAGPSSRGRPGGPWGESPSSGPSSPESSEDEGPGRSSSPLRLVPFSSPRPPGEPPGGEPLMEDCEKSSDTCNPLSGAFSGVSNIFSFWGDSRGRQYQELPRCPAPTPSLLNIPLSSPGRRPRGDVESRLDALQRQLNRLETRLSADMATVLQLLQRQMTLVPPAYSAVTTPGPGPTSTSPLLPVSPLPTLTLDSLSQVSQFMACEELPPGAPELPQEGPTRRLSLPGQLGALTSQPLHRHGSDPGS
row,SMILES,"hERG current change (%, negative = inhibition) at 10uM [%]"
1,Cc1csc(SCCn2c(N3CCCC3)nc3c2c(=O)[nH]c(=O)n3C)n1,2.18
2,CCOc1ccc(OCCC(=O)NNC(=O)c2cc(OC)c(OC)c(OC)c2)cc1,-46.1
3,COc1cc(C)c(Br)cc1S(=O)(=O)NCc1ccncc1,7.9
4,CC1CCCN(C(=O)Cn2nnc(-c3ccc(S(C)(=O)=O)cc3)n2)C1 (stereo not shown),17.7
5,C=CCOc1cccc(C2/C(=C(\O)c3ccc4c(c3)OCCO4)C(=O)C(=O)N2Cc2cccnc2)c1 (stereo not shown),17.7
6,CC(CN1C(C)CCCC1C)OC(=O)c1ccccc1F.Cl (stereo not shown),-9.23
7,COC(=O)c1ccc(C(=O)OC)c(NC(=S)N2CCN(c3ccc(F)cc3)CC2)c1,-24
8,C[C@H]1CC[C@H]2C(=O)N3[C@H](c4ccccc4Br)[C@@H](C)CC[C@H]3C(=O)N2[C@@H]1c1ccccc1Br,10.4
9,Cc1cc(C(=O)N/N=C/c2ccc(Br)o2)n[nH]1,3.87
10,O=C(CCNC(=O)C1CCN(S(=O)(=O)c2ccccc2)CC1)NCCc1ccc(Cl)cc1,-4.76
11,CC(=O)c1ccc(-n2c(CCC(=O)O)ccc2-c2ccc(Br)cc2)cc1,11.3
12,Cc1ccc(S(=O)(=O)NC(=O)COc2ccccc2)cc1,16.1
13,COc1ccc(OCC(=O)Nc2ccc(NC(=O)c3cccs3)cc2)cc1,13.9
14,Cc1ccc(NS(=O)(=O)c2cc(C(=O)NCc3cccnc3)ccc2C)cc1,-28.3
15,NCCNC(=O)c1c(NC(=O)c2ccccc2)sc2c1CCCC2,15.4
16,Cc1nnc(NC(=O)c2ccccc2Br)s1,-1.65
17,COc1ccc(Cc2nnc(SCC(=O)N(C)c3ccccc3)o2)cc1,3.3
18,O=C(CCCC(=O)NCCc1ccccc1)NCCc1ccccc1,-7.91
19,COc1ccc(CCN(C)CC(=O)Nc2c(C)cc(C)cc2C)cc1OC.Cl,4.26
20,O=Cc1ccc(-c2cccc(C(=O)O)c2)o1,16.1
21,COc1ccc(S(=O)(=O)Nc2ccccn2)cc1,13.8
22,O=C(c1ccccc1)c1nc2ccccc2n(CCCn2c(=O)c(C(=O)c3ccccc3)nc3ccccc32)c1=O,-16.1

row,SMILES,"hERG current change (%, negative = inhibition) at 10uM [%]"
1,COC(=O)C1C(=O)c2c([nH]c(C(=O)OCC3CCCO3)c2C)CC1C (stereo not shown),3.02
2,CCN(CC)c1ccc(NC(=O)CCNS(=O)(=O)c2ccc3c(c2)CCC(=O)N3)c(C)c1,5.77
3,COc1cc(CNCCO)ccc1OCC(=O)Nc1ccc(Br)cc1,-36.2
4,CCOc1ccc(C2c3[nH]c4ccccc4c3CCN2CCCn2cccn2)cc1 (stereo not shown),-68.7
5,Cn1nnnc1SCC(=O)Nc1ccc(Cl)c(S(=O)(=O)N2CCOCC2)c1,2.85
6,c1ccc(CNc2nc(-c3cccnc3)cs2)cc1,-14
7,OCCC1CN(Cc2nc3ccccc3[nH]2)CCN1C1CCCC1 (stereo not shown),3.43
8,CC1(C(=O)N(Cc2ccccc2)Cc2ccccc2)CC1(Br)Br (stereo not shown),-12.3
9,Cc1ccc(CNS(=O)(=O)c2cn(C)c(=O)n(C)c2=O)cc1,-0.643
10,Cc1nc(N)nc(C)c1Cc1ccccc1,8.87
11,Cc1ccc(C)c2[nH]c(=O)c(CCNC(=O)CCc3ccccc3)cc12,6.68
12,NNc1nc2cccnc2n(CCNc2ncc(C(F)(F)F)cc2Cl)c1=O,7.56
13,CCOC(=O)C(NCc1ccccn1)(NC(=O)c1cccnc1)C(F)(F)F (stereo not shown),-1.18
14,Cc1ccccc1Cn1cnc2ccccc2c1=O,-14.6
15,CN1CCN(c2ccc(NC(=O)c3ccc(Br)o3)cc2)CC1,-16.2
16,N=C1C(c2ccccc2)=C(O)CN1c1cccc(S(=O)(=O)NCc2ccco2)c1,-4.61
17,COc1ccc(OC(=O)c2ccc(Cl)cc2)c(C(C)=O)c1,12.3
18,CCOC(=O)c1c(CNCCN(CC)CC)n(C)c2cc(Br)c(OC)cc12.Cl,-68.5
19,CC(=O)Nc1ccc(S(=O)(=O)NCCc2ccc(F)cc2)cc1,-10.7
20,COc1ccccc1CNCC(=O)NCc1ccc(C)cc1.O=C(O)C(=O)O,-39.7
21,Cc1cccc(-c2noc(CCCC(=O)NCC3CCCO3)n2)c1 (stereo not shown),12.1
22,Fc1cccc(CNc2ncnc3ccc(-c4ccc5c(c4)OCO5)cc23)c1,-31

row,SMILES,"hERG current change (%, negative = inhibition) at 10uM [%]"
1,CC(=O)c1cccc(NC(=S)N2CCN(c3ccccn3)CC2)c1,-8.57
2,COc1cccc(C2C(C#N)=C(N)OC3=C2C(=O)CCC3)c1OC(=O)c1ccco1 (stereo not shown),14
3,O=C1CCCC(=O)C1=Cc1c[nH]c2ccccc12,11.1
4,COc1ccc(/C=N/NC(=S)Nc2ccccc2)cc1COc1ccc(Br)cc1,-1.6
5,Cc1c(C(=O)N2CCOCC2)c(S(=O)(=O)Nc2ccccc2)c(C)n1C,8.84
6,COc1ccc(/C=C2\C(=O)ON=C2c2ccccc2)cc1,23.2
7,COc1ccc(NC(=O)CN(C)S(=O)(=O)c2ccc3c(c2)CC(C)N3C(C)=O)cc1OC (stereo not shown),10.3
8,COc1ccc(C(=O)N(C(C)C)C(C)C)c(OC)c1,7.5
9,CC(C)(C)C1C=C(Sc2ccccc2)C(=O)O1 (stereo not shown),-16
10,Cc1ccc2c(c1)sc[n+]2Cc1ccccc1.[Br-],15
11,O=C(c1ccc(S(=O)(=O)Nc2ccccc2Cl)cc1)N1CCOCC1,5.07
12,Cc1cc(NC(=O)COc2cccc(C)c2C)no1,0.696
13,COc1ccc(N2CCN(Cc3cc(=O)c(OCC(=O)Nc4ccccc4)co3)CC2)cc1,9.41
14,N#C/C(=N\Nc1ccc(S(=O)(=O)N2CCc3ccccc32)cc1)C(N)=S,12.3
15,O=c1c(OC2OC(CO)C(O)C(O)C2O)c(-c2ccc(O)c(O)c2)oc2cc(O)cc(O)c12 (stereo not shown),16.7
16,COc1cc(CNC2CCC(C)C2)cc(OC)c1 (stereo not shown),7.93
17,COc1ccc(C(=O)NNC2CC(=O)N(Cc3ccc(Cl)cc3)C2=O)cc1OC (stereo not shown),-3.13
18,COc1ccc2nc(NC(=O)CN3CCN(C)CC3)sc2c1.Cl,-5.07
19,CC(C)C(=O)Nc1ccc(N2CCN(C(=O)c3cccs3)CC2)cc1,-6.99
20,Cc1ccc(CNC(=O)C2CC(=O)N(C3CCCC3)C2)cc1 (stereo not shown),10.8
21,Cc1c(O)c(=O)c2ccccc2n1C,17.9
22,COC(=O)C1=C(Nc2ccc(C)cc2)C=C(C)C(C(=O)OC)C1c1ccc(F)cc1 (stereo not shown),15.2

row,SMILES,"hERG current change (%, negative = inhibition) at 10uM [%]"
1,Cc1ccc(-c2nnc(-c3ccc(NC(=O)c4cccs4)cc3)o2)cc1,7.86
2,CC(C)C[C@@H](CO)N1CCN(C)CCC1=O,-4.26
3,CN(C)CCCNS(=O)(=O)c1cc(Cl)ccc1Cl,5.61
4,COc1ccc(C(C)NS(=O)(=O)Cc2ccccc2)cc1 (stereo not shown),9.56
5,Cc1ccc2cc3cc(C(=O)NCCC(C)C)oc3nc2c1,8.43
6,CCOc1ccc(NC(=O)NNC(=O)c2ccc3ccccc3c2O)cc1,10.9
7,C=CC[n+]1ccc2ccccc2c1C.[Cl-],9.28
8,COc1ccc(N2CCN(C(CNC(=O)C(C)(C)C)c3cccnc3)CC2)cc1 (stereo not shown),-36.7
9,O=C(CCCN1C(=O)c2ccccc2C1=O)Nc1cccnc1,-2.46
10,CC(C)(C)NC(=O)CN(Cc1ccco1)C(=O)CCC(=O)Nc1nccs1,4.5
11,CN(C)c1ccc(NC(=S)N2CCN(c3ncc(C(F)(F)F)cc3Cl)CC2)cc1,14.2
12,Cn1c(=O)c(=O)n(C)c2cc(S(=O)(=O)NCCN3CCN(c4ccccc4F)CC3)ccc21,15.1
13,COc1cc(CCC(=O)Nc2ccc(Br)c(C(F)(F)F)c2)cc(OC)c1OC,10.9
14,CCN(CC(=O)NCc1cccs1)C(=O)c1ccc(S(=O)(=O)Nc2cccc(C)c2C)cc1,-34
15,COc1ccccc1C(=O)NC(=O)Nc1nc(-c2ccccc2)cc(C(F)(F)F)n1,14
16,Cc1ccc(NC(=O)c2cc(C)n(-c3cccc(C)c3)c2C)cc1,5.53
17,COc1ccc(S(=O)(=O)n2cnc3ccccc32)c(C)c1,-5.7
18,O=C(NC(=S)Nc1ccc2oc(=O)ccc2c1)c1ccc(-c2cccc(Cl)c2Cl)o1,2.02
19,CCOC(=O)c1ccc(N(C(=O)CNC(=O)c2ccco2)C(C(=O)NCC2CCCO2)c2ccc(OC)c(OC)c2)cc1 (stereo not shown),15.3
20,O=C(CSc1nnc(Nc2ccccc2F)s1)NC1CC1,10.1
21,COc1c2ccccc2nc2ccccc12,13.3
22,COc1cc(OC)cc(-c2nnc(NC(=O)CCS(=O)(=O)c3ccccc3)o2)c1,-26.2

# Reference: PMC4336329 (PLoS ONE, 2015)
